{"source": "the supplement of paper PMC4604168 (melanoma cell lines)", "note": "The list shows a part of the results. Many values rest on one well or one pass, so single values are uncertain.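 Note: cell number obtained by counting DAPI-stained nuclei in high-throughput microscope images with image analysis software, screen run in 1,536-well plates.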"}
{"tested_on": "COLO800", "test": "cell count relative to DMSO control; melanoma cells; higher = more viable cells", "conditions": "library dose: low library concentration; 72 h", "units": {"cell count": "%"}}
{"smiles": "O=S(=O)(c1ccccc1)N(CC(F)(F)F)c1ccc(C(O)(C(F)(F)F)C(F)(F)F)cc1", "note": "+ CC(C)CCN1c2nc(Nc3cc(F)c(O)c(F)c3)ncc2N(C)C(=O)C1C [BID1870] (first compound 1.4 µM, partner dose 0.2 µM)", "cell count": 89.9}
{"smiles": "N#Cc1c(O)c2c(-c3ccc(-c4ccccc4O)cc3)csc2[nH]c1=O", "note": "+ Oc1nc(-c2ccc(C(F)(F)F)cc2)nc2c1CSCC2 [XAV939] (first compound 2 µM, partner dose 2 µM)", "cell count": 91.5}
{"smiles": "N#Cc1c(O)c2c(-c3ccc(-c4ccccc4O)cc3)csc2[nH]c1=O", "note": "+ CCN(CC)CCCCNc1ncc2cc(-c3cc(OC)cc(OC)c3)c(NC(=O)NC(C)(C)C)nc2n1 [PD173074] (first compound 2 µM, partner dose 0.1 µM)", "cell count": 70.1}
{"smiles": "COc1ccc2c(c1)CCC1C2CCC2(C)C(NCCCCCCN3C(=O)C=CC3=O)CCC12", "note": "(centres undefined) + O=C1NC(=O)/C(=C/c2ccc(-c3ccc(F)cc3O)o2)S1 [AS252424] (first compound 0.4 µM, partner dose 1 µM)", "cell count": 99.1}
{"smiles": "COc1ccc(COc2ccc(Cc3cnc(N)nc3N)cc2OC)cc1", "note": "+ Cn1cc(/C=C2\\C(=O)Nc3cccnc32)c2ccccc21 [GW441756] (first compound 1 µM, partner dose 0.4 µM)", "cell count": 130}
{"smiles": "Oc1cc(-c2nc(-c3ccccc3)[nH]c2-c2ccncc2)ccc1Cl", "note": "+ CCCCCCCCCCCC1=C(O)C(=O)C=C(O)C1=O [Embelin] (first compound 0.2 µM, partner dose 1.2 µM)", "cell count": 138}
{"smiles": "O=C(O)C(=O)Nc1sc2c(c1C(=O)O)CCNC2", "note": "+ Cn1cc(/C=C2\\C(=O)Nc3cccnc32)c2ccccc21 [GW441756] (first compound 1.66667 µM, partner dose 0.4 µM)", "cell count": 113}
{"smiles": "O=C(O)C(=O)Nc1sc2c(c1C(=O)O)CCNC2", "note": "+ CCCCCCCCCCCC1=C(O)C(=O)C=C(O)C1=O [Embelin] (first compound 1.66667 µM, partner dose 1.2 µM)", "cell count": 111}
{"smiles": "COc1ccc2c(c1)CCC1C2CCC2(C)C(NCCCCCCN3C(=O)C=CC3=O)CCC12", "note": "(centres undefined) + CCN(CC)CCCCNc1ncc2cc(-c3cc(OC)cc(OC)c3)c(NC(=O)NC(C)(C)C)nc2n1 [PD173074] (first compound 0.4 µM, partner dose 0.1 µM)", "cell count": 44.7}
{"smiles": "COC(=O)c1sccc1S(=O)(=O)Nc1ccc(Nc2ccccc2)cc1OC", "note": "+ COc1cc2ncnc(Nc3ccc(Oc4ccccc4)cc3)c2cc1OC [SrcI1] (first compound 1 µM, partner dose 2 µM)", "cell count": 95.9}
{"smiles": "CCN(CC)CCCCNc1ncc2cc(-c3cc(OC)cc(OC)c3)c(NC(=O)NC(C)(C)C)nc2n1", "note": "+ COc1ccc(COc2ccc(Cc3cnc(N)nc3N)cc2OC)cc1 [GW2580] (first compound 0.1 µM, partner dose 1 µM)", "cell count": 97.9}
{"smiles": "COc1cc(N2CCC(N3CCN(C)CC3)CC2)ccc1Nc1ncc(Cl)c(Nc2ccccc2S(=O)(=O)C(C)C)n1", "note": "+ CC(C)CCN1c2nc(Nc3cc(F)c(O)c(F)c3)ncc2N(C)C(=O)C1C [BID1870] (first compound 0.08 µM, partner dose 0.2 µM)", "cell count": 62}
{"smiles": "c1cc(-c2cnn3cc(-c4ccc(OCCN5CCCCC5)cc4)cnc23)ccn1", "note": "[Dorsomorphin] + Cn1cc(/C=C2\\C(=O)Nc3cccnc32)c2ccccc21 [GW441756] (first compound 0.4 µM, partner dose 0.4 µM)", "cell count": 98.6}
{"smiles": "Cn1cc(/C=C2\\C(=O)Nc3cccnc32)c2ccccc21", "note": "+ CCCCCCCCCCCC1=C(O)C(=O)C=C(O)C1=O [Embelin] (first compound 0.4 µM, partner dose 1.2 µM)", "cell count": 92.8}
{"smiles": "Oc1nc(-c2ccc(C(F)(F)F)cc2)nc2c1CSCC2", "note": "+ Cn1cc(/C=C2\\C(=O)Nc3cccnc32)c2ccccc21 [GW441756] (first compound 2 µM, partner dose 0.4 µM)", "cell count": 106}
{"smiles": "COc1ccc(-c2ccc3c(N4CCOCC4)nc(N4C[C@@H](C)O[C@@H](C)C4)nc3n2)cc1CO", "note": "+ Cc1cc([N+](=O)[O-])ccc1NS(=O)(=O)c1cc(Cl)ccc1Cl [FH535] (first compound 0.02 µM, partner dose 1 µM)", "cell count": 104}
{"smiles": "COc1cc(N2CCC(N3CCN(C)CC3)CC2)ccc1Nc1ncc(Cl)c(Nc2ccccc2S(=O)(=O)C(C)C)n1", "note": "+ Cn1cc(/C=C2\\C(=O)Nc3cccnc32)c2ccccc21 [GW441756] (first compound 0.08 µM, partner dose 0.4 µM)", "cell count": 116}
{"smiles": "CCN(CC)CCCCNc1ncc2cc(-c3cc(OC)cc(OC)c3)c(NC(=O)NC(C)(C)C)nc2n1", "note": "+ Cn1cc(/C=C2\\C(=O)Nc3cccnc32)c2ccccc21 [GW441756] (first compound 0.1 µM, partner dose 0.4 µM)", "cell count": 77.4}
{"smiles": "N#Cc1c(O)c2c(-c3ccc(-c4ccccc4O)cc3)csc2[nH]c1=O", "note": "+ O=c1cc(-c2cccc3c2Sc2ccccc2S3)oc(N2CCOCC2)c1 [KU55933] (first compound 2 µM, partner dose 1 µM)", "cell count": 72.4}
{"smiles": "COc1ccc(COc2ccc(Cc3cnc(N)nc3N)cc2OC)cc1", "note": "+ CC(C)CCN1c2nc(Nc3cc(F)c(O)c(F)c3)ncc2N(C)C(=O)C1C [BID1870] (first compound 1 µM, partner dose 0.2 µM)", "cell count": 88.7}
{"smiles": "COc1cc2ncnc(Nc3ccc(Oc4ccccc4)cc3)c2cc1OC", "note": "+ c1cc(-c2cnn3cc(-c4ccc(OCCN5CCCCC5)cc4)cnc23)ccn1 [Dorsomorphin] (first compound 2 µM, partner dose 0.4 µM)", "cell count": 127}
{"smiles": "O=C(O)C(=O)Nc1sc2c(c1C(=O)O)CCNC2", "note": "+ c1cc(-c2cnn3cc(-c4ccc(OCCN5CCCCC5)cc4)cnc23)ccn1 [Dorsomorphin] (first compound 1.66667 µM, partner dose 0.4 µM)", "cell count": 126}
{"smiles": "COC(=O)c1sccc1S(=O)(=O)Nc1ccc(Nc2ccccc2)cc1OC", "note": "+ Oc1nc(-c2ccc(C(F)(F)F)cc2)nc2c1CSCC2 [XAV939] (first compound 1 µM, partner dose 2 µM)", "cell count": 138}
{"smiles": "O=C1NC(=O)/C(=C/c2ccc(-c3ccc(F)cc3O)o2)S1", "note": "+ COc1cc(N2CCC(N3CCN(C)CC3)CC2)ccc1Nc1ncc(Cl)c(Nc2ccccc2S(=O)(=O)C(C)C)n1 [NVP-TAE684] (first compound 1 µM, partner dose 0.08 µM)", "cell count": 60}
{"smiles": "O=S(=O)(c1ccccc1)N(CC(F)(F)F)c1ccc(C(O)(C(F)(F)F)C(F)(F)F)cc1", "note": "+ CCCCCCCCCCCC1=C(O)C(=O)C=C(O)C1=O [Embelin] (first compound 1.4 µM, partner dose 1.2 µM)", "cell count": 85.5}
{"smiles": "O=C(O)C(=O)Nc1sc2c(c1C(=O)O)CCNC2", "note": "+ O=C1NC(=O)/C(=C/c2ccc(-c3ccc(F)cc3O)o2)S1 [AS252424] (first compound 1.66667 µM, partner dose 1 µM)", "cell count": 105}
{"smiles": "Cc1cc([N+](=O)[O-])ccc1NS(=O)(=O)c1cc(Cl)ccc1Cl", "note": "+ CC(C)CCN1c2nc(Nc3cc(F)c(O)c(F)c3)ncc2N(C)C(=O)C1C [BID1870] (first compound 1 µM, partner dose 0.2 µM)", "cell count": 83.5}
{"smiles": "COc1ccc2c(c1)CCC1C2CCC2(C)C(NCCCCCCN3C(=O)C=CC3=O)CCC12", "note": "(centres undefined) + O=S(=O)(c1ccccc1)N(CC(F)(F)F)c1ccc(C(O)(C(F)(F)F)C(F)(F)F)cc1 [T0901317] (first compound 0.4 µM, partner dose 1.4 µM)", "cell count": 95.3}
{"smiles": "Oc1nc(-c2ccc(C(F)(F)F)cc2)nc2c1CSCC2", "note": "+ CC(C)CCN1c2nc(Nc3cc(F)c(O)c(F)c3)ncc2N(C)C(=O)C1C [BID1870] (first compound 2 µM, partner dose 0.2 µM)", "cell count": 137}
{"smiles": "COc1cc(N2CCC(N3CCN(C)CC3)CC2)ccc1Nc1ncc(Cl)c(Nc2ccccc2S(=O)(=O)C(C)C)n1", "note": "+ O=c1cc(-c2cccc3c2Sc2ccccc2S3)oc(N2CCOCC2)c1 [KU55933] (first compound 0.08 µM, partner dose 1 µM)", "cell count": 83.8}
{"smiles": "N#Cc1c(O)c2c(-c3ccc(-c4ccccc4O)cc3)csc2[nH]c1=O", "note": "+ CCCCCCCCCCCC1=C(O)C(=O)C=C(O)C1=O [Embelin] (first compound 2 µM, partner dose 1.2 µM)", "cell count": 115}
{"smiles": "c1cc(-c2cnn3cc(-c4ccc(OCCN5CCCCC5)cc4)cnc23)ccn1", "note": "[Dorsomorphin] + O=c1cc(-c2cccc3c2Sc2ccccc2S3)oc(N2CCOCC2)c1 [KU55933] (first compound 0.4 µM, partner dose 1 µM)", "cell count": 93.6}
{"smiles": "COc1ccc(-c2ccc3c(N4CCOCC4)nc(N4C[C@@H](C)O[C@@H](C)C4)nc3n2)cc1CO", "note": "+ CCN(CC)CCCCNc1ncc2cc(-c3cc(OC)cc(OC)c3)c(NC(=O)NC(C)(C)C)nc2n1 [PD173074] (first compound 0.02 µM, partner dose 0.1 µM)", "cell count": 82}
{"smiles": "N#Cc1c(O)c2c(-c3ccc(-c4ccccc4O)cc3)csc2[nH]c1=O", "note": "+ COc1ccc2c(c1)CCC1C2CCC2(C)C(NCCCCCCN3C(=O)C=CC3=O)CCC12 [U73122] (first compound 2 µM, partner dose 0.4 µM)", "cell count": 87.9}
